The values that follow come from publication PMC4336329 (PLoS ONE, 2015).

The whole screen tested about 310,000 compounds, of which about 2,200 (0.71%) showed an effect of 50% or more. The effect is printed as a negative number. The list shows a part of the results.

For the test, the target named is human ether-à-go-go-related gene (hERG) potassium channel (human, UniProt Q12809). Kind of test: primary screen, population patch clamp on CHO cells stably expressing hERG.
Chain of human ether-à-go-go-related gene (hERG) potassium channel (Q12809 whole entry, looked up): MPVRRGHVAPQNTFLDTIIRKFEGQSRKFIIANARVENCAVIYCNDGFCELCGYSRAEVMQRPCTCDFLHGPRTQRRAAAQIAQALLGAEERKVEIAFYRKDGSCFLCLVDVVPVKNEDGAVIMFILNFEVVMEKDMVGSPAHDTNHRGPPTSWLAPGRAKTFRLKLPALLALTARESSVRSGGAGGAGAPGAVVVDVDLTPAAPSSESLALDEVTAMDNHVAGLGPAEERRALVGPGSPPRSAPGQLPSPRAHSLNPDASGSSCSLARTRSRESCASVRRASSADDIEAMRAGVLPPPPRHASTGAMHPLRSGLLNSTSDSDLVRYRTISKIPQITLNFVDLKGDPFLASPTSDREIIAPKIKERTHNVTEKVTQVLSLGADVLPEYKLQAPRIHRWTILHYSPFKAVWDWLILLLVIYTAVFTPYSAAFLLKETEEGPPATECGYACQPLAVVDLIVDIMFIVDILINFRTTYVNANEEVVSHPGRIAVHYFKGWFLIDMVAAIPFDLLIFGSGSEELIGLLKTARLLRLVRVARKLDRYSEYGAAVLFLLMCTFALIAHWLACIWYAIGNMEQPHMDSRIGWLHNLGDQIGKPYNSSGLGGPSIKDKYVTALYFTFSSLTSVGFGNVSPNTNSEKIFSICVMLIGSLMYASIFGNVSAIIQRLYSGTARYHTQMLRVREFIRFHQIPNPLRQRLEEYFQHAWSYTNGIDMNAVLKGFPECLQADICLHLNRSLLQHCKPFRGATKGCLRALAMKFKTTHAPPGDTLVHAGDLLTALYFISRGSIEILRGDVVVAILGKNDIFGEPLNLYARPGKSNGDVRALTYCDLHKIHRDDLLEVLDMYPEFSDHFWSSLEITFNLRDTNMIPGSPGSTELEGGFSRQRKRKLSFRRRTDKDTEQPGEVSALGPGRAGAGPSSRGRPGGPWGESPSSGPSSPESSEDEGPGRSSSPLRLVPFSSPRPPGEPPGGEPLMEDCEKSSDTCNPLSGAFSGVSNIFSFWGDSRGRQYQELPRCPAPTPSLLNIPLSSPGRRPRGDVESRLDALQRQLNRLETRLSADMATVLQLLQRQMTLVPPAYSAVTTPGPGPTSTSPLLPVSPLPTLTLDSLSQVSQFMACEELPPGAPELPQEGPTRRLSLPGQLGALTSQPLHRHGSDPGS
As to `COC(=O)c1ccc(C(=O)OC)c(NC(=O)C2CCCO2)c1` (centres unmarked), the “hERG current change (%, negative = inhibition) at 1uM” value came out at 9.88%.

For `O=C(CSc1nnc(C2CCCCC2)n1-c1ccccc1)NCc1ccco1`, the “hERG current change (%, negative = inhibition) at 1uM” value is -4.92%.

With `CCCn1nc(NC(=O)c2cccs2)c2cc3cccc(C)c3nc21`, the “hERG current change (%, negative = inhibition) at 1uM” value worked out at 2.01%.

As to `O=C(Nc1ccc2c(c1)CCC2)Nc1ccc2c(c1)OCO2`, the “hERG current change (%, negative = inhibition) at 1uM” value worked out at 3.41%.

For `CCn1c(=S)sc2c(=O)n(CC(=O)Nc3ccc(Cl)cc3)c(C)nc21`, the “hERG current change (%, negative = inhibition) at 1uM” value is given as 14.1%.

Take `CSc1ccc(C(=O)N2CCC(CCC(=O)NC3CC3)CC2)cc1`: the “hERG current change (%, negative = inhibition) at 1uM” value came to 9.38%.

On to `COc1ccc(C(=O)N2CCC(C(=O)N3CCN(c4ccc(OC)cc4)CC3)CC2)cc1`, for which the “hERG current change (%, negative = inhibition) at 1uM” value is recorded as -2.46%.

For the compound `CC1O[C@@H](O[C@H](C)CC[C@@H](C)O)C(O)C[C@H]1O` (some centres unmarked), the “hERG current change (%, negative = inhibition) at 1uM” value came to 7.55%.

`O=C1[C@@H]2[C@@H]3C[C@@H]([C@H]4ON=C(c5ccc(Cl)cc5)[C@@H]34)[C@@H]2C(=O)N1c1ccc2c(c1)OCO2`: the “hERG current change (%, negative = inhibition) at 1uM” value is 0.533%.

For `COc1ccc2c(c1)CC/C(=C/c1ccccn1)C2=O`, the “hERG current change (%, negative = inhibition) at 1uM” value turned out to be 12.5%.

On to `CCCCn1c(N)c(N(CCC(C)C)C(=O)C2CC(=O)N(c3ccc(OC)cc3OC)C2)c(=O)[nH]c1=O` (centres unmarked), for which the “hERG current change (%, negative = inhibition) at 1uM” value was -2.27%.

With `COc1ccc(-n2c(C)cc(C(=O)Cn3nnc4ccccc4c3=O)c2C)cc1`, the “hERG current change (%, negative = inhibition) at 1uM” value stood at 6.13%.

In the case of `Cc1cc(C)c2ccc(N)nc2c1O`, the “hERG current change (%, negative = inhibition) at 1uM” value came out at 0.961%.

With `CCOC(=O)c1[nH]ncc1CN1CCC(Cc2cccc(OC)c2)(C(=O)OCC)CC1`, the “hERG current change (%, negative = inhibition) at 1uM” value turned out to be 6.23%.

For the compound `COC(=O)C1=C(C)N=c2s/c(=C/c3cccs3)c(=O)n2C1c1cccs1` (centres unmarked), the “hERG current change (%, negative = inhibition) at 1uM” value turned out to be 2.76%.

For the compound `CC1=C(C#N)C2(O)C(=O)c3ccccc3C2(O)N1` (centres unmarked), the “hERG current change (%, negative = inhibition) at 1uM” value is 16.9%.

For the compound `CC(=O)/C=C1/SC(CC(=O)O)C(=O)N1c1ccccc1` (centres unmarked), the “hERG current change (%, negative = inhibition) at 1uM” value amounted to 11.9%.

In the case of `COc1cccc(C2=CC(=O)C[C@H](c3ccc(F)cc3)C2)c1OC`, the “hERG current change (%, negative = inhibition) at 1uM” value is recorded as -10.2%.

Consider `Cc1cccc(NC(=O)c2cccc3c2C(=O)c2ccccc2-3)c1`, for which the “hERG current change (%, negative = inhibition) at 1uM” value turned out to be 16.2%.

`COc1cc(C(c2sc3ncnn3c2O)N2CCN(c3ccccc3F)CC2)cc(OC)c1OC` (centres unmarked): the “hERG current change (%, negative = inhibition) at 1uM” value is reported as 12.3%.

With `C=CCn1c(N)cc(=O)nc1SC(C)C(=O)Nc1cccc2ccccc12` (centres unmarked), the “hERG current change (%, negative = inhibition) at 1uM” value is 5.37%.

`COc1ccc(NC(=O)c2ccc(NC(=O)C(C)C)cc2)c([N+](=O)[O-])c1`: the “hERG current change (%, negative = inhibition) at 1uM” value is 14.7%.

Turning to `COCCn1cnc2c1c(=O)n(CC(=O)c1ccc3c(c1)OCCO3)c(=O)n2Cc1ccccc1`, the “hERG current change (%, negative = inhibition) at 1uM” value is listed as -3.19%.

As to `CCOC(=O)Cn1cc(/C=N/NC(=O)c2ccc(C#N)cc2F)c2ccccc21`, the “hERG current change (%, negative = inhibition) at 1uM” value is reported as -5.54%.

`COc1ccc(-c2nc(-c3ccccn3)no2)cc1`: the “hERG current change (%, negative = inhibition) at 1uM” value worked out at 12.4%.

Take `Cc1ccc(NC(=O)OCCN2CCN(Cc3ccccc3)CCC2=O)cc1C`: the “hERG current change (%, negative = inhibition) at 1uM” value turned out to be 2.16%.

Consider `O=C(NCCN1CCc2ccccc2C1)Nc1ccc(F)cc1`, for which the “hERG current change (%, negative = inhibition) at 1uM” value is -13.7%.

On to `O=c1c(-c2ccccc2)coc2cc(O)ccc12`, for which the “hERG current change (%, negative = inhibition) at 1uM” value worked out at 5.59%.

For `O=C(N/C(=C/c1ccccc1)C(=O)N1CCCCC1)c1ccccc1`, the “hERG current change (%, negative = inhibition) at 1uM” value came to 6.95%.

For `COc1ccc(N2CCN(c3cc(C)c4cccc(C)c4n3)CC2)cc1`, the “hERG current change (%, negative = inhibition) at 1uM” value is recorded as 11.4%.

Turning to `CCOCCCNC(=O)c1ccc(CS(=O)(=O)Cc2cccc(C)c2)o1`, the “hERG current change (%, negative = inhibition) at 1uM” value was determined as 12.5%.

As to `CCc1ccc(CNC(=O)C2CCCN(c3nc4ccccc4o3)C2)cc1` (centres unmarked), the “hERG current change (%, negative = inhibition) at 1uM” value came out at 5.7%.

Regarding `O=C1C(=O)N(Cc2cccnc2)C(c2cccc([N+](=O)[O-])c2)/C1=C(/O)c1ccc2c(c1)OCO2` (centres unmarked), the “hERG current change (%, negative = inhibition) at 1uM” value came to 12%.

Turning to `CN(C)c1ccc(C=NCCC2(O)CCOC(C)(C)C2)cc1` (centres unmarked), the “hERG current change (%, negative = inhibition) at 1uM” value is 14.5%.

Turning to `C/C(=N\NC(=O)c1cc(C)nc2ccccc12)c1ccc([N+](=O)[O-])cc1`, the “hERG current change (%, negative = inhibition) at 1uM” value was 14.7%.

For `COc1cc(C2NC(=O)NC(C)=C2C(C)=O)cc(OC)c1OC` (centres unmarked), the “hERG current change (%, negative = inhibition) at 1uM” value was 5.4%.

Regarding `COC(=O)C(CC(C)C)NC(=O)c1ccc([N+](=O)[O-])cc1` (centres unmarked), the “hERG current change (%, negative = inhibition) at 1uM” value turned out to be 0.193%.

With `COc1cc(C(=O)N2CCN(S(=O)(=O)c3ccc(C)cc3)CC2)ccc1OCc1c(C)noc1C`, the “hERG current change (%, negative = inhibition) at 1uM” value worked out at 7.68%.

In the case of `Cc1cc(C(=O)NC2CCCCC2)c(C)n1-c1ccc(F)cc1`, the “hERG current change (%, negative = inhibition) at 1uM” value is -4.23%.

Take `CCOC(=O)c1cccc(Nc2nc(-c3cccnc3)nc3ccccc23)c1.Cl`: the “hERG current change (%, negative = inhibition) at 1uM” value was -3.9%.

For the compound `CCCCn1nc(NC(=O)CC(C)C)c2cc3cc(OC)ccc3nc21`, the “hERG current change (%, negative = inhibition) at 1uM” value amounted to 13.4%.

With `Cc1nn(C)cc1C(=O)/C=C/c1ccc([N+](=O)[O-])cc1`, the “hERG current change (%, negative = inhibition) at 1uM” value was determined as 6.23%.

`Cc1c(/C=N/Nc2ccc([N+](=O)[O-])cn2)c2ccccc2n1Cc1ccccc1`: the “hERG current change (%, negative = inhibition) at 1uM” value is 16.3%.

`CCCNc1nc(Cl)nc(NC(C)(C)C)n1`: the “hERG current change (%, negative = inhibition) at 1uM” value was determined as 16.2%.
